Measurements: a collection of fitness landscapes (doi:10.1016/j.celrep.2020.107928)
In all, about 81,000 sequences were measured (“one-hybrid fitness for binding parS DNA”: median about -0.17, highest 2% from about 0.51 on). This is one part of the list.

B1: Caulobacter ParB omega fusion; a variant is named by its letters at X, in order, B8GW30 (parent)
chain: MESVVVGEPGMSEGRRGLGRGLSALLGEVDAAPAQAPGEQLGGSREAPIEILQRNPDQPRRTFREEDLEDLSNSIREKGVLQPILVRPSPDTAGEYQIVAGERAWRAAQRAGLKTVPIMVRELDDLAVLEIGIIENVQRADLNVLEEALSYKVLMEKFERTQENIAQTIGKSXSHVANXMRLLXLPDEVQSYLVSGELTAXHARAIAAAADPVALAKQIIEGGLSVRETEALARKAPNLSAGKSKGGRPPRVKDTDTQALESDLSSVLGLDVSIDHRGSTGTLTITYATLEQLDDLCNRLTRGI

Variants of: B1
Experiment: one-hybrid fitness for binding parS DNA (scaled: cognate 1, non-cognate 0); higher = stronger binding
Details: with parS DNA site
In short: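 Values were rescaled so that cognate is 1 and non-cognate is 0. Each is a fitness, the log change in a variant's read ratio to wild type from Illumina reads of plasmids before and after selection, with three replicate libraries pooled and variants under 10 reads dropped. Selection of the Caulobacter ParB libraries, four specificity codons randomised, used E. coli USO with a HIS3 reporter, site 19 bp from the promoter, on M9-minus-histidine with 0.1 mM IPTG and 5 mM 3-AT for 48 hours at 37°C.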

Row | Variant | one-hybrid fitness for binding parS DNA
1 | KRYN | ≤ 0.2
2 | KCDL | ≤ 0.2
3 | QWPL | ≤ 0.2
4 | GLMW | ≤ 0.2
5 | QAQA | ≤ 0.2
6 | THHR | ≤ 0.2
7 | STHY | ≤ 0.2
8 | MHSA | ≤ 0.2
9 | QTSP | ≤ 0.2
10 | KAIM | ≤ 0.2
11 | ARTK | ≤ 0.2
12 | YIFL | ≤ 0.2
13 | RWCM | ≤ 0.2
14 | TIGC | ≤ 0.2
15 | IPIV | ≤ 0.2
16 | HLKK | ≤ 0.2
17 | IPKT | ≤ 0.2
18 | HGFM | ≤ 0.2
19 | LRGS | ≤ 0.2
20 | KPVM | ≤ 0.2
21 | LCSL | ≤ 0.2
22 | TCGS | ≤ 0.2
23 | RHNM | 0.291
24 | DHPF | ≤ 0.2
25 | MNST | ≤ 0.2

Row | Variant | one-hybrid fitness for binding parS DNA
26 | DISR | ≤ 0.2
27 | QHAC | ≤ 0.2
28 | AHTH | ≤ 0.2
29 | CVFT | ≤ 0.2
30 | DHQS | ≤ 0.2
31 | VCVI | ≤ 0.2
32 | DSMS | ≤ 0.2
33 | GRQK | ≤ 0.2
34 | HRGQ | 0.215
35 | VTSF | ≤ 0.2
36 | LPAF | ≤ 0.2
37 | MEQS | ≤ 0.2
38 | QSVV | ≤ 0.2
39 | KTAW | ≤ 0.2
40 | MYTA | ≤ 0.2
41 | GAAM | ≤ 0.2
42 | DVMS | ≤ 0.2
43 | LMTT | ≤ 0.2
44 | EQTG | ≤ 0.2
45 | RGCY | ≤ 0.2
46 | QEDL | ≤ 0.2
47 | GSYC | ≤ 0.2
48 | QPDP | ≤ 0.2
49 | TDPQ | ≤ 0.2
50 | VPSY | ≤ 0.2

Row | Variant | one-hybrid fitness for binding parS DNA
51 | LSRV | ≤ 0.2
52 | MSVR | ≤ 0.2
53 | HMTG | ≤ 0.2
54 | KHRH | ≤ 0.2
55 | HVRS | ≤ 0.2
56 | LYDG | ≤ 0.2
57 | PSCV | ≤ 0.2
58 | MVPV | ≤ 0.2
59 | ACNR | ≤ 0.2
60 | VNDS | ≤ 0.2
61 | VIVC | ≤ 0.2
62 | RCFC | 1.03
63 | VPAN | ≤ 0.2
64 | GKYS | ≤ 0.2
65 | RVKA | 0.756
66 | QKAI | ≤ 0.2
67 | SGPI | ≤ 0.2
68 | YHRF | ≤ 0.2
69 | TYLI | ≤ 0.2
70 | EEAM | ≤ 0.2
71 | AKVR | ≤ 0.2
72 | PFTW | ≤ 0.2
73 | GCER | ≤ 0.2
74 | RLAW | 0.232
75 | RYED | ≤ 0.2

Row | Variant | one-hybrid fitness for binding parS DNA
76 | QTCS | ≤ 0.2
77 | KQPC | ≤ 0.2
78 | HKQC | ≤ 0.2
79 | YMPR | ≤ 0.2
80 | NIIS | ≤ 0.2
81 | LNNS | ≤ 0.2
82 | HHCG | ≤ 0.2
83 | MMSV | ≤ 0.2
84 | ADWI | ≤ 0.2
85 | NVTS | ≤ 0.2
86 | NCRW | ≤ 0.2
87 | ITRV | ≤ 0.2
88 | LHER | ≤ 0.2
89 | NDGG | ≤ 0.2
90 | ESVA | ≤ 0.2
91 | PVRF | ≤ 0.2
92 | ACTM | ≤ 0.2
93 | TFKE | ≤ 0.2
94 | VATA | ≤ 0.2
95 | QSVL | ≤ 0.2
96 | FKSV | ≤ 0.2
97 | EMNT | ≤ 0.2
